Reference: article PMC4336329 (PLoS ONE, 2015)
About 14,000 (4.5%) of roughly 310,000 compounds showed an effect of 50% or more. Effects have a minus sign here. This is one part of the list.

Biological target: human ether-à-go-go-related gene (hERG) potassium channel (human, UniProt Q12809)
Assay: primary screen, population patch clamp on CHO cells stably expressing hERG
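Note: peak tail current of the secondary pulse compared with the same well before compound.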

human ether-à-go-go-related gene (hERG) potassium channel, sequence (Q12809 whole entry, looked up): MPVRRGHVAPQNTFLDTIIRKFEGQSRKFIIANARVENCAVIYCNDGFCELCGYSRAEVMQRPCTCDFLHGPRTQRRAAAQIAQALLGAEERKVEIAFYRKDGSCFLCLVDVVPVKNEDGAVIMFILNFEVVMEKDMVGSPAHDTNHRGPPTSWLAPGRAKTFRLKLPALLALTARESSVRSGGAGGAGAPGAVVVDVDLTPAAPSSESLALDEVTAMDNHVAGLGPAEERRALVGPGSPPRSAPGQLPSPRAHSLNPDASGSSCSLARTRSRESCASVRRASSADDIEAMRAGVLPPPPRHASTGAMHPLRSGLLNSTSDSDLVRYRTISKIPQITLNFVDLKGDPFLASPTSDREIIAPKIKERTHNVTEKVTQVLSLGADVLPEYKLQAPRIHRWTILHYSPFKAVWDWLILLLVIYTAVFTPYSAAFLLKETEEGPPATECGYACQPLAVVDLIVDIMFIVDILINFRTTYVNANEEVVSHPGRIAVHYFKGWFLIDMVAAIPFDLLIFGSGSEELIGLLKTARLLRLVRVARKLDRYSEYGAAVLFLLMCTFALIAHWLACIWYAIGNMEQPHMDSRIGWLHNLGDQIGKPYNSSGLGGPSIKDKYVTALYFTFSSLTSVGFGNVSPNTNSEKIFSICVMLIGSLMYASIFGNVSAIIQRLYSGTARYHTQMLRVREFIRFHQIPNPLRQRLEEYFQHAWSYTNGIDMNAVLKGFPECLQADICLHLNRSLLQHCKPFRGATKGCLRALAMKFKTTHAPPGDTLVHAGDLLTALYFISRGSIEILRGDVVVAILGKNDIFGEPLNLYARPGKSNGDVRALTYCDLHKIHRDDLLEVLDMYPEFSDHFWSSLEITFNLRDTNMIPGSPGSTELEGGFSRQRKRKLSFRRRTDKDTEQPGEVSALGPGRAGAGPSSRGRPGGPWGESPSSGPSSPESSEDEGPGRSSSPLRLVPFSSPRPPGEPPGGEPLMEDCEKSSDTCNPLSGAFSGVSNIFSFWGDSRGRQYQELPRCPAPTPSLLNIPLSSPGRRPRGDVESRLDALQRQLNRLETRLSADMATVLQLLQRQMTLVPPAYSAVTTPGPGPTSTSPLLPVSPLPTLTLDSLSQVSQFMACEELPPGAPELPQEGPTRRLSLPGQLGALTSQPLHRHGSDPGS

Row | Structure (SMILES) | hERG current change (%, negative = inhibition) at 10uM [%]
1 | NC(=O)c1ccsc1NC(=O)COC(=O)Cc1n[nH]c(=O)c2ccccc12 | 24.2
2 | Clc1ccc(SCCn2cncn2)cc1 | -9.13
3 | Cc1cc(CNC(=O)C(C)Cc2ccccc2)nn1C (stereo not shown) | 4.57
4 | S=C(NN=C1CCCCCC1)Nc1ccc(Cl)cc1 | 2.53
5 | Fc1cccc(-c2c(-c3ccccc3)ncc3cc(F)ccc23)c1 | 22.9
6 | CCn1cc(CN2CCN(C)C(CCO)C2)c2ccccc21 (stereo not shown) | 1.8
7 | Cn1c(=O)c2c(ncn2CCCl)n(C)c1=O | 12.1
8 | O=C(N/N=C/c1ccc(-c2cccc([N+](=O)[O-])c2)o1)c1ccccc1O | 7.58
9 | NC(=O)CC[C@@H]1NC(=O)[C@H](CO)NC(=O)c2cc([N+](=O)[O-])cc(I)c2NCCC[C@@H](C(N)=O)NC(=O)[C@H](Cc2ccc(O)cc2)NC1=O | -12.7
10 | NC(=O)COc1ccc(=O)n(-c2ccccc2)n1 | 0.159
11 | N#CCSc1nccc(-c2cc(Cl)sc2Cl)n1 | -0.951
12 | COc1ccc(C(=O)OC2CCN(c3ncc(C(F)(F)F)cc3Cl)CC2)cc1 | 0.443
13 | Cc1cccc(CC(=O)N2CCC(N3CCC(C(=O)N4CCOCC4)CC3)CC2)c1 | 0.701
14 | O=C(NCCNC(=O)c1cc(OCC(F)(F)F)ccc1OCC(F)(F)F)Nc1ccccc1 | -35.2
15 | COc1ccc(CNC(=S)N2CCN(S(=O)(=O)c3cccc(F)c3)CC2)cc1 | -7.9
16 | Oc1ccccc1/C=N/NC(=S)NCCc1ccccc1 | 19.7
17 | CSCC[C@H](NC(=O)N1CCn2c1nc1ccccc12)C(=O)N[C@H](Cc1ccccc1)C(=O)O | 4.8
18 | CC(C)NC(=O)Cn1nnc(-c2ccc(Cl)cc2)n1 | 4.9
19 | Cc1cccc(N2CCN(C(=O)c3cnn4c(C(F)F)cc(-c5ccccc5)nc34)CC2)c1C | -3.42
20 | COc1ccc2oc(C(=O)Nc3nc(C)cs3)c(C)c2c1 | 11.2
21 | OC1(c2ccc(OC(F)F)cc2)CSC(=Nc2cccnc2)N1C1CC1 (stereo not shown) | -34.2
22 | O=C(Nc1ccc(-n2ccnc2P(=O)(O)c2ccccc2)cc1)c1ccccc1Cl | 3.26
23 | CN(C)c1nc2sc3c(c2c(=O)n1C)CC(C)(C)OC3 | 18.2
24 | CCCN1CCN(CCCNC(=O)C2CCCN(c3nnc(-n4cccc4)s3)C2)CC1 (stereo not shown) | -10.4
25 | Cc1ccc(C(CNS(=O)(=O)c2ccccc2)N2CCN(C)CC2)cc1 (stereo not shown) | -53.6
26 | Cc1onc(-c2ccccc2Cl)c1C(=O)Nc1ccc(-c2cn3cccnc3n2)cc1 | 26
27 | O=C(O)/C=C/C(=O)Nc1ccc(OCc2ccccc2)cc1 | 8.53
28 | COc1ccc(CNC(=O)CSc2nc(-c3ccccc3)cc(-c3cccs3)c2C#N)cc1 | -2.25

Row | Structure (SMILES) | hERG current change (%, negative = inhibition) at 10uM [%]
29 | CCOC(=O)C1(CCCc2ccccc2)CCN(C(=O)CN2C(=O)CSC2=O)CC1 | -4.63
30 | Cc1nc2cc(C(=O)NCCN3CCOCC3)ccc2n1-c1ccc(F)cc1F | -3.86
31 | Cn1c(=O)c2c(nc(CN3CCc4ccccc4C3)n2Cc2ccccc2F)n(C)c1=O | -12.2
32 | COC(=O)c1cc2c(C)cc3ccc(C)cn3c-2c1C(=O)OC | 3.3
33 | Cc1[nH]c2ccccc2c1C(c1ccccn1)c1c(C)[nH]c2ccccc12 | 1.02
34 | O=C(CN1CCN(Cc2ccccc2)CC1)N/N=C/C=C/c1ccco1 | -47.2
35 | O=C(Cn1cnc2ccccc21)N/N=C/C(Br)=C/c1ccccc1 | 5.98
36 | N/C(=N\OC(=O)c1ccc2ccccc2c1)c1ccncc1 | -38.4
37 | O=C(N/N=C/c1ccc(Cl)cc1)c1cc(-c2cccnc2)nc2ccccc12 | -1.68
38 | COc1ccccc1C(=O)N/N=C(\C)c1ccc(NC(=O)Cc2ccccc2)cc1 | 14.9
39 | Cc1ccc(NC(=O)C2CCCO2)c(Br)c1 (stereo not shown) | -0.0778
40 | C=CCOc1cccc(CNn2nnnc2N)c1 | 19.4
41 | CC(=O)CC1OC(=O)C(Br)=C1NCc1ccccc1 (stereo not shown) | -9.26
42 | COc1ccc(COc2cc(-c3cccc(OC)c3)nc3ccc(NC(=O)c4ccccc4)cc23)cc1 | 25.2
43 | CNC(=O)NCCN1CCCC1=O | 7.98
44 | CSCCC(NC(=O)COc1ccccc1)C(=O)N1CCCCC1 (stereo not shown) | -11.8
45 | COc1ccc(NC(=O)C(=O)NNC(=O)COc2ccc(OC)cc2)cc1 | 18.7
46 | Cc1ccc2nc3c(cc(C(=O)NCCc4ccccc4)c(=N)n3CCCN3CCOCC3)c(=O)n2c1 | -80.6
47 | CC(=O)N1CCN(CC(=O)Nc2c(Cl)cccc2Cl)CC1.O=C(O)C(=O)O | 3.57
48 | COc1cc(S(=O)(=O)N2CCN(c3ccccn3)CC2)ccc1Br | -3.95
49 | COc1ccc(OC)c(CCNC(=O)Cn2nc(C)c3c(C)n(-c4ccccc4)nc3c2=O)c1 | 5
50 | Brc1ccc(N=C(c2ccccc2)c2ccncc2)cc1 | 4.96
51 | O=[N+]([O-])c1cc(/C=N/N2CCCCC2)ccc1Cl | 6.8
52 | COC(=O)C1C(c2ccccc2)C(C(=O)O)C1c1ccccc1 (stereo not shown) | 25.3
53 | COc1ccccc1C(=O)NCCC(=O)NNC(=O)C1COc2ccccc2O1 (stereo not shown) | -4.55
54 | CC1Cc2ccccc2N1C(=O)CN1CCC(C(N)=O)CC1 (stereo not shown) | -21.2
55 | C=CCOc1ccc(/C=C(\C#N)C(=O)Nc2ccccn2)cc1 | 8.12
